Measured values reported in PubChem BioAssay AID463173 (ICCB-Longwood Screening Facility, Harvard Medical School, 2010).
The campaign covered roughly 52,000 compounds. About 4,300 (8.3%) were called active. Rule as the data show it: active = survival mostly below about 52% (no sharp cut-off); inactive = mostly above about 56%. Some of the results follow.

System: DeltatarO mutant
Experiment: growth inhibition of S. aureus wild type versus tarO mutant, primary screen, teichoic acid synthesis inhibitors, RN4220, OD600 (AID 463173)
Conditions: OD600, 18 h, active compounds read low, screened at 18.75 µg/mL (by protocol)

Structure (SMILES) | survival
O=C(Nc1cccc(C(F)(F)F)c1)C1CCN(S(=O)(=O)c2cccs2)CC1 | active: 39%
Cc1ccc(S(=O)(=O)c2nc(-c3ccccc3F)oc2NCc2ccccc2)cc1 | inactive: 68%
Cc1nc(N2CCOCC2)c2c(C(=O)N3CCN(c4ccccc4)CC3)c(C)oc2n1 | active: 37%
CC(=O)OC(C(=O)NCc1ccc(F)cc1)c1ccccn1 (stereo not given) | inactive: 84%
Cc1cc2c(cc3c(SCC(=O)Nc4ccc(Cl)cc4F)nncn32)o1 | active: 36%
CCOC(=O)c1cccc(NC(=O)NC(C)c2c(-n3cccc3)sc3c2CCN(C)C3)c1 (stereo not given) | inactive: 119%
CCCNC(=O)CN1CCN(c2ccc(NC(=O)c3ccc(OC)cc3)cc2C(=O)O)CC1 | inactive: 94%
COc1ccc(CNC(=O)c2ccc(NC(=O)N3CCSc4ncccc43)cc2)cc1 | inactive: 84%
CC(C)NC(=O)c1ccccc1NC(=O)c1ccco1 | inactive: 73%
Cc1ccccc1C(=O)N1CCC(C(=O)Nc2ccc(F)cc2F)CC1 | inactive: 67%
N#CCN(CC#N)S(=O)(=O)c1ccccc1 | inactive: 58%
CCOc1ccc(NC(=O)CCc2c(C)nc3c(-c4ccccc4)c(C)nn3c2C)cc1 | inactive: 94%
Cc1ccc(CNC(=O)CSC2=Nc3ccccc3N=C(c3ccc(F)cc3)C2)cc1 | inactive: 73%
COCCCN1C(=O)c2oc3ccccc3c(=O)c2C12C(=O)N(C)c1ccccc12 (stereo not given) | inactive: 64%
O=C(COc1ccccc1F)Nc1ccc(OCc2cc(=O)n3ccccc3n2)cc1 | inactive: 118%
COc1ccc(CC(=O)N2CCc3cc(OC)c(OC)cc3C2COc2ccc3c(C)cc(=O)oc3c2)cc1OC (stereo not given) | inactive: 65%
COc1ccccc1CNC(=O)CCNS(=O)(=O)c1ccc2c(c1)oc(=O)n2C | inactive: 92%
O=C(COc1ccc(F)cc1)NCc1ccc2c(c1)CCN2C(=O)c1ccccc1 | inactive: 81%
CNC(=O)c1ccc2c(c1)N(Cc1ccccc1Cl)C(=O)c1ccccc1S2 | inactive: 75%
O=C(CN(C1CCCCC1)S(=O)(=O)c1ccccc1)N1CCCCC1 | inactive: 104%
O=C(Cn1c(=O)nc(-c2ccccc2F)c2cc(Cl)ccc21)NCCCc1ccccc1 | inactive: 83%
Cc1cccc(NC(=O)c2sc3nc(-c4cc5ccc(O)cc5oc4=O)[nH]c(=O)c3c2C)c1 | inactive: 46%
Cc1cc(C)cc(NC(=O)c2c(C)oc3nc(C)nc(N4CCCC4)c23)c1 | inactive: 55%

Structure (SMILES) | survival
CC(C)CCn1c(=O)c2cccnc2n(CC(=O)Nc2ccccc2F)c1=O | inactive: 82%
Cn1c2ccccc2c2cnn(CC(=O)Nc3ccccc3F)c(=O)c21 | inactive: 111%
CCOc1ccc(Nc2nn(-c3ccc(OC(F)(F)F)cc3)nc2C(C)=O)cc1 | inactive: 112%
CCc1ccc(OCC(=O)Nc2ncn[nH]2)c(Br)c1 | inactive: 88%
COc1cccc(-c2noc(-c3cc(C(C)C)[nH]n3)n2)c1OC | inactive: 73%
COc1cccc(Cn2c(-c3nonc3NC(C)=O)nc3ccccc32)c1 | inactive: 70%
CCC1CN(C(=O)N2CCC(C(=O)N3CCN(c4ccccc4F)CC3)CC2)c2ccccc2O1 (stereo not given) | inactive: 97%
CCC(Sc1nc2ncccc2o1)C(=O)Nc1ccc(OC)c(OC)c1 (stereo not given) | inactive: 79%
COc1ccc(C2CC(=O)c3cc(-c4nc(-c5cccc(Cl)c5)cs4)c(=O)[nH]c3C2)cc1 (stereo not given) | inactive: 94%
CC(C)C(=O)Nc1sc2c(c1C(N)=O)CCCC2 | inactive: 77%
Cc1ccc2c(=O)cc(C(=O)Nc3sc4c(c3C(=O)NCC3CCCO3)CCCC4)oc2c1 (stereo not given) | inactive: 71%
O=S(=O)(c1ccc(Cl)cc1Cl)n1ccnc1 | inactive: 76%
CSc1oc(-c2cccs2)nc1S(=O)(=O)c1ccc(Br)cc1 | inactive: 56%
COc1ccc(N2CCN(Cc3nnc(-c4ccc5c(c4)OCO5)o3)CC2)cc1 | inactive: 88%
CCc1cccc(C)c1Nc1c(-c2ccsc2)nc2ncccn12 | inactive: 67%
Cc1ccc2c(c1)c1c3n2CCN(C(=O)c2cccc(C(F)(F)F)c2)C3CCC1 (stereo not given) | active: 14%
COC(=O)CCC1(C(=O)O)CCOC(C)(C)C1 (stereo not given) | inactive: 72%
Cc1ccc(C)c(Cn2c3ccccc3c3cnn(CC(=O)NCCc4ccccc4)c(=O)c32)c1 | inactive: 73%
Cc1ccc(-n2nc(C)c3nc(CCC(=O)Nc4cccc(F)c4)c(=O)n(C)c32)cc1 | active: -5%
Cc1cccc(CNC(=O)CCCN2C(=O)CCn3nc(-c4cccn4C)cc32)c1 | inactive: 92%
CCOc1c(Cl)cc(C(=O)N(Cc2ccc(N(C)C)cc2)Cc2ccco2)cc1Cl | inactive: 82%
COc1ccc(CNC(=O)C2CCCN(c3nnc(C)c4c(C)n(-c5ccc(C)cc5)nc34)C2)cc1 (stereo not given) | inactive: 101%
CCC(Sc1nnc(-c2ccc(OC)c(OC)c2)c(-c2ccc(OC)c(OC)c2)n1)C(=O)NC1CCCC1 (stereo not given) | inactive: 94%

Structure (SMILES) | survival
O=C(NCCc1ccccc1)c1ccc(Cn2c(SCc3ccccc3)nc3cccnc32)cc1 | inactive: 117%
Cc1cccn2c(=O)cc(CSc3nnc(NC(=O)c4ccc(F)cc4)s3)nc12 | inactive: 83%
Oc1ccc(Br)cc1C=Nc1cccc(-c2nc3ccccc3o2)c1 | inactive: 101%
CCOc1ccc2nc(NCCNC(=O)NCc3ccccc3)c(C#N)cc2c1 | inactive: 98%
CCCOc1ccc(Oc2nc(NCC(C)C)nc(N(C)C)n2)nn1 | inactive: 82%
CCc1ccc(NC(=O)C(Cc2ccccc2)NS(=O)(=O)c2ccc3c(c2)c(=O)n(C)c(=O)n3C)cc1 (stereo not given) | active: 45%
CNC(=O)c1cnc2sc(N3CCCCCC3)nn2c1=O | inactive: 115%
COc1ccc(C(=O)Nc2nc3ccccc3n2CCOc2ccc(Cl)cc2)cc1 | active: -5%
CCOc1ccc(N(CC)C(=O)CCc2nc(-c3ccccc3F)no2)cc1 | inactive: 46%
Cc1ccc(NC(=O)Cn2nc3c(cc2=O)CCCC3)cc1Cl | inactive: 93%
COc1cc(CNCCSc2nnnn2C)ccc1OCc1ccc(Cl)cc1Cl | active: 30%
COc1ccc2nc(SC)nc(C)c2c1 | inactive: 67%
CCN(C(=O)CSc1nc2ccccc2nc1Cc1ccc(F)cc1)c1cccc(C)c1 | inactive: 86%
Cc1cccc(C)c1NC(=O)c1sc(-n2nc(C)c(Cc3ccc4c(c3)OCO4)c2C)nc1C | inactive: 97%
CC1(C)Cc2ccccc2C(N/N=C/c2ccncc2)=N1 | inactive: 66%
Clc1ccc(NCc2nc3ccccc3n2CCOc2ccccc2)cc1 | inactive: 50%
COc1ccc(Cl)cc1NC(=O)Cn1c(=O)c2ccccc2n2nncc12 | inactive: 71%
O=C(O)c1ccc(OCOc2ccc(C(=O)O)c(C(=O)O)c2)cc1C(=O)O | inactive: 96%
Cc1ccccc1C(=O)N1c2ncnn2C2(CCCCC2)[C@@H]2CCCC[C@@H]21 | inactive: 89%
CCc1nc(-c2ccc(C)c(S(=O)(=O)N3CCN(c4ccc(C(C)=O)cc4)CC3)c2)no1 | inactive: 77%
O=C(c1ccc2c(c1)OCCO2)C1CCCCC1 | inactive: 83%
O=C(NCCn1cc(SCc2ccc(F)cc2)c2ccccc21)c1cccs1 | inactive: 50%
CCn1cc(C(=O)N2CCN(c3cc(Cl)ccc3C)CC2)c(=O)c2cc(S(=O)(=O)N3CCCCC3)ccc21 | inactive: 76%

Structure (SMILES) | survival
COC(=O)C1=C(C)N(C(C)C)C(=O)C1(NC(=O)c1ccc(C(C)(C)C)cc1)C(F)(F)F (stereo not given) | inactive: 81%
CC(=O)c1ccc(NC(=O)CCc2c(C)nn(-c3ccc4nnc(C)n4n3)c2C)cc1 | inactive: 84%
CCc1ccc(NC(=O)Cn2cc(S(=O)(=O)c3ccc(F)cc3)c(=O)c3cc(OC)ccc32)cc1 | inactive: 83%
CC(C)CC(C(=O)NCC1CCN(Cc2ccc(F)cc2)CC1)N1Cc2ccccc2C1=O (stereo not given) | inactive: 94%
COc1ccc(NC(=O)C2CCC(CNS(=O)(=O)c3ccc(Br)s3)CC2)c(OC)c1 (stereo not given) | inactive: 74%
CCOC(=O)C1(Cc2ccc(O)cc2)NC(c2ccco2)C2C(=O)N(c3ccccc3F)C(=O)C21 (stereo not given) | inactive: 107%
COc1cc(NC(=O)N2CCC(CN3CCCCCC3)CC2)cc(OC)c1OC | inactive: 88%
Cc1cccc(S(=O)(=O)c2cn(C)c3cc(N4CCN(c5ccccc5)CC4)c(F)cc3c2=O)c1 | inactive: 86%
Cc1ccc(Cn2c(C)c3cnn(CC(=O)NCCc4ccc(Cl)cc4)c(=O)c3c2C)cc1 | inactive: 61%
COc1cccc(CCNC(=O)c2cnc3sc(N4CCOCC4)nn3c2=O)c1 | inactive: 120%
Cc1ccc(NC(=O)CSc2nc(-c3ccco3)nc3cc(=O)[nH]n23)cc1 | inactive: 83%
CCOc1ccc(C(=O)Nc2ccc(-n3nncc3-c3ccc(OC)cc3)cc2)cc1 | inactive: 67%
Cn1nnnc1SCCNCc1ccc(Cl)c(Cl)c1 | inactive: 56%
COc1ccccc1NC(=O)C1=C(C)Nc2nc(-c3ccco3)nn2C1c1ccccc1F (stereo not given) | inactive: 73%
CCCc1cc(=O)[nH]c(Nc2ccc(OCC)cc2)n1 | inactive: 58%
Cc1ccc(-c2nc(N3CCCC(C)C3)c3ccccc3n2)cc1 (stereo not given) | active: -2%
CCc1ccccc1NC(=O)CSc1nc2c(oc3ccccc32)c(=O)n1C | inactive: 86%
Cc1nn(C)c2c1c(-c1ccccc1)cc(=O)n2CC(=O)NC(C)C | inactive: 101%
COc1cccc(CNC(=O)C2CCCN(c3nc4ccccc4n4cccc34)C2)c1 (stereo not given) | inactive: 75%
Cc1ccc(CN2CCCn3nc(C(=O)NCCc4ccccc4Cl)cc3C2=O)cc1 | inactive: 70%
COc1ccc(CCNCc2ccc3c(c2)n(C)c(=O)n3C)cc1OC | inactive: 103%
